Read counts are not given, so values of variants with three or more changes are uncertain.
B1: LINE1-full (parent)
chain: UACGUAGGUGGUUUUCCCCUGAUAGUGCUAAGGGGGCCUGGAAGUUUGGACUGGGCAGAGCUCAACACAGCGUGGCAAAGUGGCUGUGGCUAGACUGCCUCUCUGGAUUCCUCGUCACUCAGCAGGGCAUCUCUGAGAGAAAUGCC

Variants of: B1
Assay: self-cleavage, relative activity (ratio to wild type); higher = more cleavage; in vitro, sequencing; the parent is a self-cleaving ribozyme

Variant	self-cleavage
A69U U85A U119C	0.74
A2G U13A A30G A124G U130C	1.53
G11U U14C A79C A140G	1.17
U9C U23A U62C	0
U1C U96C U143C	0.13
A24G U26C A59G A77U	0
C3U C76U A129G	1.41
U13A G33U A79G	1.18
U46G G55A C71A	0.02
U5C U47A A79U A124U	1.71
A22U A77G A136G	0.57
U13C A94G U130G	0
U47C A64G A124U	0.52
A2G U46A U62A	0.15
G11U G72A A77U	0.85
U29C G60A U132C	0.38
A42U A92U C131A	0.37
U15A U46C A142G	1.31
U14C A30G U39A G89A U132C	0.1
A77G U96C A142G	0.07
A59U C118U A121U	0.83
A77U U109C A141G	0.92
U26A U39C A94G G125A A140G	0.17
G34U U62A U112A U132C	0.03

Variant	self-cleavage
G7U U47C C116U	1.33
A57G U73A C76U A92G	0.13
U47A U73C U108C U134C	1.67
C90U C103U U115A	0.03
U13C U20C U45C	1.58
U9C U102C U112C	0.84
A2C G54A A64G U81C	0.11
U9C A77U U109C U112A	0.46
U1C A2G G10U A59G	0.26
A24G C38U U47A A69G	0.74
A78G U109C A136G	1.38
U39A U62C A65C A140G	0.68
G7A A24G G32A U87C	0.27
G35A A42G G60U A79G A141U	0.06
U20C A65G U87C U143C C146U	0
U12C A77G U96A	0.14
U14C A77G A140G A141G	0.97
C51U U119C A121G	1.39
U20A A69G A92G A124U	0
U15C U96A G127A	0.05
G34U A43G A136G	1.26
U52A U62C C146U	0.06
A69U U104A U143C	0.04
U81A U87C A124G	0.22

Variant	self-cleavage
G10A A57G U87A	0.13
A64U U73C U132A	0.72
A42G A57G A79G U87G	0
U12G G53A U85C U102C	0.19
U12A U100C A124U	1.11
A2G U104A C113U U134C	1.13
A64U A92U U100C	0.18
U132C U134A A138G	1.04
C19U U26A U62C U104A A141G U143C	0.05
U20C A57G U115A U134A G137U	1.74
A22G G33A A129U	0.89
G48A U62C U87G	0.03
U20G U102C A121G A136G A138U	1.45
A22U A50G A69G	0
A57G U85A U119A A136G	0.07
U13C U29C C113U	1.47
A77U A140U U143C	1.09
C3U U9C U12G A92U U96C	0
U9G A59G U102G C123U	0.38
A2G A77G C98G C145U	0.34
U23A A24G A50G G86C	0.19
U12C A22G U26G	0.89
U14C A42G A69G C71U	0.25
G32A U112C A121U	1.84

Variant	self-cleavage
U14C A42G U115A A124G A136G	2.63
A78G U87A U130C A140G	0.12
U9C U13A U143C	1.15
G48A A79G A124G	0.38
A22C A140G A141G	1.96
U5C U15A A69G	0.36
U46C A129G A136U	1.56
U62C U104G A121U A124G U134A	0.23
U45C G58A U112A	0.12
A24U U39G U62A C133U A142G	0.13
A43U A79G U91C U119A	0.41
U12C U46C U102A	2.2
C3U U91C G122U	0.61
U20A G55A A65G	0.04
A2G U12C U45C G58A U134A	0.2
U1C U13A A77G	1.23
C28U U62C A121G A138U	0.06
U14A U96C A142G	0.06
A2G U12C U52C U87A	0.18
A77U U102C A140G	0.34
A77U U85C A140G	0.21
U13A U23C G40U A43G U100C	0.25
A50G A77G A121U	2
A42U A77U U115C	1.49

Variant	self-cleavage
A64G A77G U132C	0
U13C U26G U85A	0.2
A30U G86A G97A A136G	0.04
U23G A59U U73G	0.62
A2G G40A U109A A141G U143A	0.67
A22G C84A G114U U132C A141G	0.16
U13A A64G A140G	0.38
U14C U15C U130A	1.39
U1C G44A A141G	1.19
A2G C3U U13C A57C G89A A121U	0.14
U29C G53U U62C C131U U134C	0.05
U14C A22G A79G U108A A136U A140U	0
G53U A107G A117C A124G	1.38
C37U U45C U102A	1.44
U23C A31U A129G	0.69
A67U U102C A124G	0
U119A C120U A124G	0.93
A77G U119G C133U	1.65
A50U U52A G72A C111U A136G	1.17
G11C A43G C68U U87C A138G	0
A24U A57G C76U U96A	0.06
U62C U96G U100C A141G	0.09
G53A U81A U119C	2.67
A50G U104C A141G	1.74

Variant	self-cleavage
A57G U85A U104A U115C C116U	0.03
U14C U46A U47C A140G	3
C63U U73C A77U	0.31
U73A U81A U134C	0.47
A24G A30G U39C U112C	0
A50G A69G A94U A140U	0.2
G8A U20C A67G A94G A140G	0.32
U26C C103A G126A A138G	0.97
U47C A57G G70A C76U A78G	0.12
U23A G60U G82A U134C	0.02
U9G G40A U73G	0.82
U1C U85C U100C G105A U134A	0.23
U14C C76A U91C G114A	0.6
G21U C113A A136G	1.67
A50G A94G U109A A142G	0
U26C A64U U85A U115C A136U	0.09
G10A U14A A22G A78G U100A	0.1
U39C A77G U108C U143A	2.04
U62C C71U A141G	0.03
U13C U62C A94G	0.23
U15C U102C U132C	1.01
C19U U45C U87A U109C A140G	0
U13C U134C A138G	0
U1C A69G C71U A124G	0.03

Variant	self-cleavage
U20C G54A A67G	0
U26G U39C G55C	0.39
U15C U100G C131A	2.19
C19U U112C A138G	0.22
U9C G44A U143A	1.58
U1C A79G U96C	0
U96C U109C U115A U119C	0
U13C C68A U91C A142G	0.1
G21A A67G C90U	0
A6G U13C A78G U91C A94U U132A	0
U5A A65U A136G	0.42
G8A A77G G88A	0.11
G36A A67G U91C	0.24
U14G U46C G54C A141G	0.65
U26C U96A A124U	0.04
U12C U52C U130A	1.24
A69U A78C U87C	0
A24G C37A U47C	1.31
A2G U13A A50U A67G	0.2
U46C C68U G114A C116U	0.32
A64G C76U U81A A94G U104C	0.24
U5A U62C U119C C120U	0.03
U26C A117U U119C	2.2
